Laboratory results from PubChem BioAssay AID485294 (National Center for Advancing Translational Sciences (NCATS), 2010).
About 150 (0.041%) of roughly 370,000 compounds were called active. Inconclusive results, whose numbers are uncertain, are shown with a selection of clear calls. Calls come from the whole dose curve; as a rule, active = well fitted inhibition curve with a large enough effect; inconclusive = small, poorly fitted or top-dose-only effect; inactive = flat fitted curve, though single readings scatter. No potency is given beside an inconclusive call; the fits are too rough.

biological target: Beta-lactamase (Escherichia coli (strain K12)) (UniProt P00811); assay: qHTS Inhibitors of AmpC Beta-Lactamase (assay with detergent); conditions: AmpC hydrolysis of nitrocefin, absorbance 480 nm, 0.01% Triton; series mostly up to 114 µM; note: nearly all actives have a fitted effect of over 25% in size
Outline: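 20 mM phosphate pH 7.0 + 0.01% (detergent screen) or 0.0001% Triton X-100; 5.3 nM AmpC reagent; cpd preinc 15 min RT; nitrocefin (800 uM stock) to start; A480 q20 s × 4 min; Activity was normalised to no-enzyme and no-compound control wells.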
Potency is the fitted concentration of half-maximal effect; tags give direction and shape of the fitted curve.

UniProt P00811, sequence (P00811 whole entry, looked up): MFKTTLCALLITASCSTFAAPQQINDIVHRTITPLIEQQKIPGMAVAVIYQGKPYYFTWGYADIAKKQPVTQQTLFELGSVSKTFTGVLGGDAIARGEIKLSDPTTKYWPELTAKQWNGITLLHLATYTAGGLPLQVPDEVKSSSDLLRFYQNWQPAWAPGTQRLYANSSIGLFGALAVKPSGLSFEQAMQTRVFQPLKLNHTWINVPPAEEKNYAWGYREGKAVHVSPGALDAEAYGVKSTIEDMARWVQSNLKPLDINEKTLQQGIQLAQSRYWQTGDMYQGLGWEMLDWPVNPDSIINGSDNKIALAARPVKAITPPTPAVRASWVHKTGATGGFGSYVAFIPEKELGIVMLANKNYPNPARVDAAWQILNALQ

| Structure (SMILES) | Potency |
| --- | --- |
| Cc1ccc(C(=O)OCCOc2cccc(Cl)c2)cc1S(=O)(=O)N1CCOCC1 | inconclusive [inhibitor, partial curve] |
| Cc1ccc(SCC(=O)N(Cc2nc(-c3ccccc3)no2)C(C)C)cc1 | inconclusive [inhibitor, full curve, poor fit] |
| Cc1[nH]c(=O)c(C#N)c2c1CSC(C)(C)C2 | inconclusive [inhibitor, partial curve, poor fit] |
| COc1cc(C(=O)NNC(=O)c2ccccc2OCc2c(C)noc2C)cc(OC)c1OC | inconclusive [inhibitor, partial curve, poor fit] |
| COc1ccc(OC)c(S(=O)(=O)N2CCC(C(=O)Nc3cc(C)ccc3C)CC2)c1 | inconclusive [inhibitor, partial curve, poor fit] |
| CC(=O)Nc1ccc(NC(=O)C2CCN(C(=O)c3cccs3)CC2)cc1 | inconclusive [inhibitor, single point] |
| Cc1ccsc1C(=O)NNC(=O)c1ccc(NS(=O)(=O)c2cccs2)cc1 | inconclusive [inhibitor, partial curve, poor fit] |
| CCc1ccc(CNC(=O)CCCN2C(=O)c3cccnc3Oc3ccc(Cl)cc32)cc1 | inactive |
| O=C(COc1ccccc1)Nc1nnc(S(=O)(=O)N2CCCCCC2)s1 | inconclusive [inhibitor, partial curve, poor fit] |
| CCCCc1cc2c(c(NC(=O)CC)n1)c(=O)oc1ccccc12 | inconclusive [inhibitor, full curve, poor fit] |
| CC(=O)c1ccc(S(=O)(=O)Nc2ccccc2C(=O)NC2CC2)cc1 | inconclusive [inhibitor, partial curve, poor fit] |
| CCOc1cccc(NC(=O)Cc2cccs2)c1 | inconclusive [inhibitor, full curve] |
| CCC(C)N1C(=O)S/C(=C/c2ccc(N3CCOCC3)cc2C)C1=O (configuration not stated) | inconclusive [inhibitor, partial curve] |
| O=C(CSc1ccccc1)NCc1ccc2c(c1)CCN2C(=O)c1ccc(F)cc1 | inactive |
| Cn1cnnc1SCC(=O)Nc1ccccc1C(=O)NC1CC1 | inconclusive [inhibitor, single point] |
| CCN(CC(=O)NC(=O)NCc1ccccc1)Cc1nc2ccccc2c(=O)[nH]1 | inconclusive [inhibitor, full curve, poor fit] |
| Cn1c(SCc2cnc(-c3ccccc3)s2)nnc1C1COc2ccccc2O1 (configuration not stated) | inconclusive [inhibitor, full curve, poor fit] |
